Data reported in the supplement of paper PMC3334620.
Whole data set: some 33,000 sequences, median “E-score (-0.5 to 0.5)” near -0.012, cut for the highest 2% near 0.27. Some of the results follow.

Target: T1, Vhr1 (UniProt P40522)
T1 sequence: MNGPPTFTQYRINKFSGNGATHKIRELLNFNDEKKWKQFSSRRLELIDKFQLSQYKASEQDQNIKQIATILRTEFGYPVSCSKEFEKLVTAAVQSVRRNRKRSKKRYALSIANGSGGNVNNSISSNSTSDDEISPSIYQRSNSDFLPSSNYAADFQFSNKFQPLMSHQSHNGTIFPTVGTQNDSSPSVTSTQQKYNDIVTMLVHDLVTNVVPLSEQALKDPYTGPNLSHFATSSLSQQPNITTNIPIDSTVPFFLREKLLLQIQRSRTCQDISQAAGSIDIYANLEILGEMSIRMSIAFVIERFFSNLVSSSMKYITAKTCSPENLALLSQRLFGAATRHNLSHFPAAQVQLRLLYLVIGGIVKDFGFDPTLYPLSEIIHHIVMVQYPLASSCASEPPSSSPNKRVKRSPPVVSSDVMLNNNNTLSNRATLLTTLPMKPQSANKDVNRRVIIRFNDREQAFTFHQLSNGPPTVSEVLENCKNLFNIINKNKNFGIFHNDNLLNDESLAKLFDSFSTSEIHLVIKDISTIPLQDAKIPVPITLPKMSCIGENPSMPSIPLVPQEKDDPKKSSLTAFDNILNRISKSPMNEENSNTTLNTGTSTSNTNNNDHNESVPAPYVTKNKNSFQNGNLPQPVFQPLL
Test: PBM E-score (8-mer binding enrichment) (E-score (-0.5 to 0.5)); higher = stronger / more preferred TF binding; most listed sequences are background and not binding sites
Settings: protein concentration: 200 nM; construct: GST-full length
Procedure, shortened: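 For each ungapped eight-base word taken together with its reverse complement, the Universal PBM Analysis Suite assigned an E-score. Binding data came from GST-tagged yeast transcription factors, applied at about 100-200 nM, on universal all-10-mer Agilent arrays made double-stranded by primer extension. Fluorescent anti-GST marked bound protein, and scans were normalised with masliner.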

Row | Sequence | PBM E-score
1 | AGGTCGGG | -0.0253
2 | GACGCTCA | -0.165
3 | GCAGAAGC | -0.128
4 | ACAGTTAT | 0.0825
5 | AGCTAGCA | -0.119
6 | AGCCTCTC | -0.247
7 | CCACACCG | 0.185
8 | CCTGCGAC | -0.0485
9 | CAGCAGCG | -0.0154
10 | AATGCAGT | 0.0713
11 | CCATGTGC | 0.161
12 | AGCCAGGG | 0.00759
13 | ACTGGATG | -0.0104
14 | AGTTATGG | -0.0297
15 | CCCTTCAG | 0.055
16 | ATCTCAGA | 0.00554
17 | CACCGATA | 0.15
18 | CCGGTGCA | -0.108
19 | AGCTGTAA | -0.0737
20 | CCGGCAGG | -0.223
21 | CCTTTGAG | -0.241
22 | CTCATATC | 0.203

Row | Sequence | PBM E-score
23 | TATGGTCA | 0.0512
24 | ATGATGCC | 0.108
25 | ATTCACGC | 0.117
26 | GACTACGA | 0.208
27 | GAAGCCCA | -0.0644
28 | GATGTACC | 0.16
29 | AACCGGGC | -0.0416
30 | CAGTTTGC | 0.051
31 | CATAAAGG | -0.0919
32 | CCTCCTAA | -0.27
33 | CAGTCTCC | 0.141
34 | ATTGAGCC | 0.137
35 | TATAAGGA | 0.149
36 | TAAGTAGA | -0.0454
37 | CACCTAAG | 0.0719
38 | GATAGACC | -0.0134
39 | ATAAAAAC | -0.227
40 | CACCAGGC | 0.0955
41 | TACGTAGA | -0.167
42 | ACAGCTCA | 0.0391
43 | CATTCCGC | -0.038
44 | ATAGACAG | -0.0433

Row | Sequence | PBM E-score
45 | GGATATAC | 0.0747
46 | CAGCTCAA | 0.0751
47 | ATTTGGCC | -0.128
48 | AACGCCTT | -0.344
49 | ATCATAAT | 0.206
50 | CGGCGTTA | -0.0527
51 | CTCGGTTC | -0.112
52 | AAGTATTC | -0.0531
53 | AGAGTGCT | -0.067
54 | CGGCGTGA | 0.142
55 | CCTACCAA | 0.0676
56 | AGGGTGCA | -0.033
57 | CCCTGCGA | -0.0219
58 | CGTCGGCA | 0.044
59 | CGTCGCAA | 0.0851
60 | AAATCACC | 0.312
61 | GCACAGGA | 0.00719
62 | GTCAAAGA | -0.228
63 | AATCCGCT | -0.0793
64 | AACTTGAA | -0.103
65 | CTTTCTGA | -0.169
66 | AGGCCTGG | -0.223

Row | Sequence | PBM E-score
67 | ACACAGCG | 0.312
68 | TAGTCCAA | -0.157
69 | CGTTCCAC | -0.161
70 | AGTACTGG | -0.0217
71 | ACATCGTA | 0.146
72 | ATTAAAGA | -0.0149
73 | TCGTTCCA | -0.338
74 | ATGTTTGC | -0.116
75 | ACATACGA | 0.126
76 | TCCGTGCA | -0.00278
77 | GTGATGGA | 0.0761
78 | CTTAATTA | -0.0565
79 | CAGACTAC | 0.136
80 | CAACCTTA | -0.104
81 | ATAGACTC | 0.0405
82 | CAAGCCAA | 0.0231
83 | GAGTAGCA | 0.03
84 | AGTACAAG | 0.193
85 | AACACCAA | 0.0981
86 | ATCATTTC | 0.0295
